For O=C(O)C1=C[C@@H](O)[C@@H](O)[C@H](O)C1, the solubility (mole fraction) (in ethanol, 297.45 K) was 0.00446, the solubility (mole fraction) (in ethanol, 302.65 K) was 0.00526 and the solubility (mole fraction) (in ethanol, 307.75 K) was 0.00634. It also gave a solubility (mole fraction) (in ethanol, 312.45 K) of 0.00721, a solubility (mole fraction) (in ethanol, 317.55 K) of 0.00855 and a solubility (mole fraction) (in ethanol, 322.25 K) of 0.01. It also gave a solubility (mole fraction) (in ethanol, 327.85 K) of 0.0118, a solubility (mole fraction) (in ethanol, 332.55 K) of 0.0139 and a solubility (mole fraction) (in ethanol, 337.35 K) of 0.0159. For the same compound, the solubility (mole fraction) (in ethanol, 342.55 K) was 0.019, the solubility (mole fraction) (in ethanol, 348.15 K) was 0.0228 and the solubility (mole fraction) (in isopropanol, 303.75 K) was 0.00099. The solubility (mole fraction) (in isopropanol, 308.95 K) was 0.00142, the solubility (mole fraction) (in isopropanol, 313.75 K) was 0.00229 and the solubility (mole fraction) (in isopropanol, 319.15 K) was 0.00291. The solubility (mole fraction) (in isopropanol, 323.25 K) was 0.00412, the solubility (mole fraction) (in isopropanol, 328.25 K) was 0.00583 and the solubility (mole fraction) (in isopropanol, 333.25 K) was 0.00736. The solubility (mole fraction) (in isopropanol, 337.95 K) was 0.00906, the solubility (mole fraction) (in isopropanol, 342.75 K) was 0.011 and the solubility (mole fraction) (in isopropanol, 347.25 K) was 0.0131. For the same compound, the solubility (mole fraction) (in isopropanol, 352.45 K) was 0.0161, the solubility (mole fraction) (in n-heptane, 302.15 K) was 0.00343 and the solubility (mole fraction) (in n-heptane, 313.65 K) was 0.00455. The solubility (mole fraction) (in n-heptane, 323.25 K) was 0.00667, the solubility (mole fraction) (in n-heptane, 328.35 K) was 0.00733 and the solubility (mole fraction) (in n-heptane, 337.75 K) was 0.00969. For the same compound, the solubility (mole fraction) (in n-heptane, 342.65 K) was 0.00993, the solubility (mole fraction) (in n-heptane, 348.05 K) was 0.0108 and the solubility (mole fraction) (in n-heptane, 352.45 K) was 0.0121. The solubility (mole fraction) (in n-pentanol, 304.45 K) was 0.00128, the solubility (mole fraction) (in n-pentanol, 313.65 K) was 0.00212 and the solubility (mole fraction) (in n-pentanol, 323.75 K) was 0.00318. For the same compound, the solubility (mole fraction) (in n-pentanol, 328.55 K) was 0.00402, the solubility (mole fraction) (in n-pentanol, 332.95 K) was 0.0051 and the solubility (mole fraction) (in n-pentanol, 338.25 K) was 0.00634. The solubility (mole fraction) (in n-pentanol, 342.75 K) was 0.00759, the solubility (mole fraction) (in n-pentanol, 352.55 K) was 0.0113 and the solubility (mole fraction) (in n-pentanol, 357.15 K) was 0.014. It also gave a solubility (mole fraction) (in n-pentanol, 362.05 K) of 0.0172, a solubility (mole fraction) (in n-propanol, 308.15 K) of 0.00088 and a solubility (mole fraction) (in n-propanol, 313.65 K) of 0.00124. For the same compound, the solubility (mole fraction) (in n-propanol, 318.15 K) was 0.0017, the solubility (mole fraction) (in n-propanol, 323.35 K) was 0.00217 and the solubility (mole fraction) (in n-propanol, 328.55 K) was 0.00317. The solubility (mole fraction) (in n-propanol, 333.15 K) was 0.0039, the solubility (mole fraction) (in n-propanol, 337.85 K) was 0.00487 and the solubility (mole fraction) (in n-propanol, 343.65 K) was 0.00661. It also gave a solubility (mole fraction) (in n-propanol, 347.55 K) of 0.00829, a solubility (mole fraction) (in n-propanol, 352.65 K) of 0.0104 and a solubility (mole fraction) (in n-propanol, 357.25 K) of 0.0123. For the same compound, the solubility (mole fraction) (in n-propanol, 362.15 K) was 0.0156, the solubility (mole fraction) (in water, 299.55 K) was 0.0248 and the solubility (mole fraction) (in water, 303.65 K) was 0.0274. It also gave a solubility (mole fraction) (in water, 308.75 K) of 0.0323, a solubility (mole fraction) (in water, 313.85 K) of 0.0374 and a solubility (mole fraction) (in water, 318.45 K) of 0.0427. It also gave a solubility (mole fraction) (in water, 323.45 K) of 0.0484, a solubility (mole fraction) (in water, 328.75 K) of 0.0563 and a solubility (mole fraction) (in water, 333.05 K) of 0.0637. It also gave a solubility (mole fraction) (in water, 337.05 K) of 0.0695, a solubility (mole fraction) (in water, 342.55 K) of 0.0807 and a solubility (mole fraction) (in water, 352.45 K) of 0.102. The solubility (mole fraction) (in water, 362.15 K) was 0.125.

From BigSolDB 2.1
